Measured values published in PubChem BioAssay (NCI).
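Exposure lasted 48 hours, with cells grown in 96-well plates and compounds tested at five concentrations. GI50: concentration for 50% inhibition of growth. TGI: concentration producing complete growth inhibition.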

System: NCI-H322M lung
Test: NCI anticancer screen, dose series, 48 h

## Oc1ccc(-c2nnc(SCc3ccc(O)c4ncccc34)n2-c2ccccc2)cc1
  GI50: 524 nM
  TGI: > 100000 nM
